Measured values published in patent publication US20230399408A1 (AB THERAPEUTICS, published 2023).

Target: T1, c-MET-His tag protein (human, UniProt P08581 25-932)
T1 construct: also called cMET-HIS tagged; not shown: His tag
Assay: ELISA on coated c-MET-His tag protein (4 ug/ml), biotinylated human HGF, streptavidin-HRP

Sequence of c-MET-His tag protein (P08581 25-932 limits assumed): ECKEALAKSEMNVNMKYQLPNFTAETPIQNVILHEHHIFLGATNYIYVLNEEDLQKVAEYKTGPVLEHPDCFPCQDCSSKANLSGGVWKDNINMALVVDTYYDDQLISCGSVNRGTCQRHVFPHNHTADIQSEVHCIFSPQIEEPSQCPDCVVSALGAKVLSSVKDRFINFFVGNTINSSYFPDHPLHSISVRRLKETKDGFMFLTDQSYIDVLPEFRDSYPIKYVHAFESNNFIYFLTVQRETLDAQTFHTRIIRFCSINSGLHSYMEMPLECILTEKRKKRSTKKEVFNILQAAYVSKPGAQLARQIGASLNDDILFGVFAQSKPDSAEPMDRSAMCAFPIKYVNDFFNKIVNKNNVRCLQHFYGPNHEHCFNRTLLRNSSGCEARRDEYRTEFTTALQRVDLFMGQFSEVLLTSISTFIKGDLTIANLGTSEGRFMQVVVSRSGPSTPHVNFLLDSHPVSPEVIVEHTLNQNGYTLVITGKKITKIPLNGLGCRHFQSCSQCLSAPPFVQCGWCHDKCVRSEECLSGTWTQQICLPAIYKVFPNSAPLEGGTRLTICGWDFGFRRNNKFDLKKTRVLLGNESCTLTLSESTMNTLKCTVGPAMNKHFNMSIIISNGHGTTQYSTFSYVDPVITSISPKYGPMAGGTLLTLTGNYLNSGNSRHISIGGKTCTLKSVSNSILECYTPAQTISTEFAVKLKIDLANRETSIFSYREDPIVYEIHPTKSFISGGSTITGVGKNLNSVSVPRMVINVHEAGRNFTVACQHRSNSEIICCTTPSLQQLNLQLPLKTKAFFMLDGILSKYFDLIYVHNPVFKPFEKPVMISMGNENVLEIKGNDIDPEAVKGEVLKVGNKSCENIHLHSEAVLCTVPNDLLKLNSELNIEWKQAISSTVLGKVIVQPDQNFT

binding result: binds
B1: biotinylated Hu-HGF protein (ligand)
chain: not shown
modifications: biotinylated
notes: also called human HGF; Hu-HGF-B
